Measured values taken from PubChem BioAssay AID1345083 (National Center for Advancing Translational Sciences (NCATS), 2018).
Screen size: about 94,000 compounds; about 6,200 (6.6%) were called active. The inconclusive results got no clear call from the source; some entries with a clear call stand among them for comparison. Calls come from the whole dose curve; as a rule, active = well fitted inhibition curve with a large enough effect; inconclusive = small, poorly fitted or top-dose-only effect; inactive = flat fitted curve, though single readings scatter. Potencies of inconclusive entries are doubtful fits and often do not repeat.

Assay: Cytotoxic Profiling in HEK 293 Cell Line of Diverse Libraries Using Quantitative High-Throughput Screening; note: nearly all actives have a fitted effect of over 60% in size
Conditions: HEK 293 viability, ATP luminescence (CellTiter-Glo), 48-72 h; activity change, negative = cytotoxicity: at 115 µM (top of the series) unless noted; series mostly up to 115 µM
Procedure, shortened: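 HEK 293 cells at 250 cells/well were exposed to compounds by pintool transfer for 48 or 72 hr at 37 degree Celsius, 5% CO2. Viability was read as ATP-coupled luminescence with CellTiter-Glo after 10 min at room temperature.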
% is set by controls: 0 for no effect and ±100 for the full control effect; potency is the fitted concentration of half-maximal effect; tags give direction and shape of the fitted curve.

| Structure (SMILES) | activity change, negative = cytotoxicity | Potency | outcome |
| --- | --- | --- | --- |
| CC(=O)N1CCCN(c2ccnc3ccnn23)CC1 | inactive: -3.84% [at 172 µM] |  |  |
| Cc1ccccc1CN1C[C@@H]2[C@H](C1)N(Cc1ccccc1)C(=O)C(C)(C)[S+]2(=O)[O-] |  | inconclusive: 112 µM [inhibitor, single point] |  |
| O=S(=O)(c1cccc(F)c1)N1CC[C@@H]2COCCN(Cc3ccccc3)[C@@H]2C1 |  | inconclusive: 79.4 µM [inhibitor, partial curve, poor fit] |  |
| O=C(c1ccc2cc[nH]c2c1)N1CCCC(Cc2noc(-c3cnccn3)n2)C1 (configuration not stated) | inactive: -12% |  |  |
| Cc1cc(=O)n(CC(=O)Nc2ccccc2C)c(-c2ccc(Cl)cc2)n1 |  | inconclusive: 50.1 µM [inhibitor, partial curve, poor fit] |  |
| CC(C)C(=O)N1CCCC1c1nc(CCOCC2CC2)no1 (configuration not stated) | inactive: -11.8% |  |  |
| O=C(NCc1cccnc1)[C@@H]1C[C@@H](c2ccc(F)cc2)N(Cc2ccccc2)C1 |  | inconclusive: 89.1 µM [inhibitor, partial curve, poor fit] |  |
| COc1ccc(-n2nc3n(c2=O)CCN(C(=O)c2ccccc2F)C3)cc1 |  | inconclusive: 89.1 µM [inhibitor, single point] |  |
| Cc1nn(-c2ccccn2)c(C)c1[C@@H]1C=C[C@@H](NC(=O)NCc2ccccc2)C1 |  | inconclusive: 112 µM [inhibitor, partial curve, poor fit] |  |
| CCOC(=O)C1(Cc2ccccc2Cl)CCN(Cc2cccc3c2OCO3)CC1 |  | inconclusive: 50.1 µM [inhibitor, partial curve, poor fit] |  |
| Cc1ccc(-c2nc(CNC(=O)[C@@H](N)[C@@H](C)O)[nH]c2-c2ccccn2)cc1 |  | inconclusive: 56.2 µM [inhibitor, partial curve, poor fit] |  |
| COc1ccc(Cl)cc1NC(=O)CCC1CCCN(Cc2ccc3c(c2)OCCO3)C1 (configuration not stated) |  | inconclusive: 89.1 µM [inhibitor, single point] |  |
| COCC(=O)NC[C@H]1CCN(Cc2cccc(Cl)c2)C[C@H]1N(C)C | inactive: -8.42% |  |  |
| O=C(c1ccc(Cl)nc1)N1CCCC(C(=O)N2CCC(c3nc4ccncc4[nH]3)CC2)C1 (configuration not stated) | inactive: 0.493% |  |  |
| CN(C)c1cccc(C(=O)NC2CCN(c3cc(-c4ccc(Cl)cc4)[nH]n3)CC2)c1 |  | inconclusive: 44.7 µM [inhibitor, partial curve, poor fit] |  |
| O=C(c1ccc(-n2ccnc2)cc1)N1CCC(c2[nH]ncc2-c2ccccc2)CC1 | inactive: -21.7% |  |  |
| COc1ccc(CC(=O)N2CCC(Cc3nc(-c4ccc(OC)cc4)no3)CC2)cc1 |  | inconclusive: 8.91 µM [inhibitor, full curve, poor fit] |  |
| CC(=O)N(C1CC1)C1CCOC2(CCN(C(=O)CCCc3ccccc3)CC2)C1 (configuration not stated) |  | inconclusive: 31.6 µM [inhibitor, full curve] |  |
| OCCC1CN(Cc2cnn(-c3ccccc3)c2)CCN1Cc1cccs1 (configuration not stated) |  | inconclusive: 89.1 µM [inhibitor, single point] |  |
| COc1cc(CNC(=O)c2nc3nc(-c4ccccc4)c(Cl)cc3n2C)cc(OC)c1 |  | inconclusive: 79.4 µM [inhibitor, partial curve] |  |
| CN(Cc1cccnc1)c1nc2c(c(=O)[nH]1)CCN(Cc1ccc(F)c(Cl)c1)CC2 |  | inconclusive: 39.8 µM [inhibitor, full curve, poor fit] |  |

| Structure (SMILES) | activity change, negative = cytotoxicity | Potency | outcome |
| --- | --- | --- | --- |
| Cc1cc(C(=O)NC2CCCC2)c2c(C3CCCNC3)noc2n1 (configuration not stated) |  | inconclusive: 100 µM [inhibitor, partial curve, poor fit] |  |
| COc1cccc(CCC(=O)NCCn2ccn3nc(-c4cccc(OC)c4)cc3c2=O)c1 |  | inconclusive: 35.5 µM [inhibitor, full curve] |  |
| O=C(NCC1CCOCC1)[C@@H]1C[C@@H](c2ccc(F)cc2)N(CCOc2ccccc2)C1 |  | inconclusive: 89.1 µM [inhibitor, partial curve] |  |
| O=S(=O)(c1ccc2c(c1)CCC2)N1CC(n2cnnc2C2CCCO2)C1 (configuration not stated) |  | inconclusive: 100 µM [inhibitor, single point] |  |
| COc1ccc(OC)c(NC(=O)CCC2CCN(C(=O)c3ccccc3)CC2)c1 |  | inconclusive: 79.4 µM [inhibitor, single point] |  |
| CCc1nc2c(c(-c3ccc(Cl)cc3)n1)CCN(Cc1ccnn1C)CC2 |  | inconclusive: 100 µM [inhibitor, single point] |  |
| CCn1cc(S(=O)(=O)N2CCC(N3C(=O)[C@H](OC)[C@@H]3c3ccncc3)CC2)cn1 | inactive: -10.3% |  |  |
| O=C(NC1C[C@H]2CC[C@@H](C1)N2C(=O)CCC1CCCCC1)c1ccncc1 (some centres not stated) |  | inconclusive: 44.7 µM [inhibitor, partial curve, poor fit] |  |
| CCC1(C(=O)NCc2ccc(C)o2)CCCCC(=O)N1 (configuration not stated) | inactive: -4.75% |  |  |
| CC1(C)[C@H]2CC[C@@H](CNC(=O)c3cc(F)ccc3Br)[C@@H]1C2 |  | inconclusive: 35.5 µM [inhibitor, partial curve, poor fit] |  |
| Cc1ccc(NC(=O)c2ccc3c(c2)N(C)C2CCCN2C3=O)cc1F (configuration not stated) |  | inconclusive: 89.1 µM [inhibitor, single point] |  |
| COc1ccccc1CNC(=O)C1CN(C)C(=O)N1 (configuration not stated) |  |  | inactive [at 172 µM] |
| O=C(CCC1CCN(C(=O)c2ccccc2)CC1)Nc1ccccc1 |  | inconclusive: 50.1 µM [inhibitor, partial curve] |  |
| CCNC(=O)[C@@H]1C[C@@H](NC(=O)Cn2nc(C)cc2N)CN1C1CCOCC1 |  | inconclusive: 10 µM [inhibitor, full curve, poor fit] |  |
| CCCn1c(C)cnc1CC1CCCN(S(=O)(=O)c2cc(OC)ccc2OC)C1 (configuration not stated) |  | inconclusive: 44.7 µM [inhibitor, partial curve, poor fit] |  |
| COCC1CN(C2CCC2)CC12CCN(C(=O)c1cnc(C)cn1)CC2 (configuration not stated) |  | inconclusive: 79.4 µM [inhibitor, single point] |  |
| Cc1cccc(CNC(=O)c2cc3c(N4CCSCC4)nc(C)cn3n2)c1 |  | inconclusive: 79.4 µM [inhibitor, single point] |  |
| CC(C)(C)NC(=O)NCc1nnc2n1C(C(=O)NCc1cccs1)CC2 (configuration not stated) | inactive: 0.0671% |  |  |
| CCn1ccc2cc(C(=O)N3CCC(=O)N(CC4CC4)C(C(C)C)C3)ccc21 (configuration not stated) |  | inconclusive: 50.1 µM [inhibitor, partial curve, poor fit] |  |
| COc1ccc(C(=O)NCCc2noc(-c3cccnc3)n2)cn1 | inactive: -16.6% |  |  |
| COc1ccc(Cl)cc1NC(=O)CCC1CCCN(c2ccc(C(F)(F)F)cn2)C1 (configuration not stated) |  | inconclusive: 50.1 µM [inhibitor, partial curve, poor fit] |  |

| Structure (SMILES) | activity change, negative = cytotoxicity | Potency | outcome |
| --- | --- | --- | --- |
| COc1ccc(C(=O)N[C@@H]2C=C[C@@H](c3c(C)nn(Cc4ccccc4)c3C)C2)cc1 |  | inconclusive: 70.8 µM [inhibitor, partial curve, poor fit] |  |
| O=C(c1nn(CC2CC2)c2c1CNCC2)N1CCC(Cc2ccccc2)CC1 |  | inconclusive: 56.2 µM [inhibitor, partial curve, poor fit] |  |
| Fc1ccc(-c2ccc3ncc(Nc4ccccn4)n3n2)cc1 |  | active: 89.1 µM |  |
| O=C(Nc1ccc2c(c1)OCO2)c1cccc2c1CCN2C(=O)Nc1ccc(F)cc1 |  | inconclusive: 56.2 µM [inhibitor, partial curve, poor fit] |  |
| Cc1cnc(C2CC2)n1CCNS(=O)(=O)c1ccccc1Cl | inactive: -2.98% |  |  |
| O=C(NC1CCN(c2cc(-c3ccc(F)cc3)[nH]n2)C1)c1c[nH]c2ccccc12 (configuration not stated) |  | active: 39.8 µM |  |
| Cc1cc(=O)n(CC(=O)NCc2ccccc2Cl)c(N(C)Cc2ccccc2)n1 |  | inconclusive: 39.8 µM [inhibitor, partial curve] |  |
| C=CCOC(=O)C1=C(C)N=C2SC=C(CC(=O)NCC3CC3)N2C1c1cccc(OC)c1OC (configuration not stated) |  | inconclusive: 10 µM [inhibitor, full curve, poor fit] |  |
| Cc1cc(C)cc(C(=O)N2CCC(Cc3nc(-c4ccccc4)no3)CC2)c1 |  | inconclusive: 50.1 µM [inhibitor, partial curve, poor fit] |  |
| CCN1c2cc(C(=O)Nc3ccc(OC(F)(F)F)cc3)ccc2C(=O)N2CCCCC21 (configuration not stated) | inactive: -17% |  |  |
| CN(C)C[C@@H]1CN(S(C)(=O)=O)C[C@H]1NC(=O)C1(c2ccccc2)CCCC1 | inactive: -5.16% |  |  |
| COc1ccc(-c2nnc(C[C@@H]3C[C@@H](C(C)C)[C@H](CNC(=O)c4cnccn4)C=C3C)o2)cc1 |  | inconclusive: 89.1 µM [inhibitor, single point] |  |
| O=C(c1ccc(C(F)(F)F)cc1)N1CCC2(CC1)C(=NC1CCCC1)NC(=O)N2c1cccnc1 |  |  | inactive |
| COc1ccc(Nc2ccnc(N3CCCC(C(=O)N4CCCC(C)C4)C3)n2)cc1 (configuration not stated) |  | inconclusive: 25.1 µM [inhibitor, partial curve, poor fit] |  |
| COc1ccc2ccccc2c1CN1CCC2(CC1)[C@H](O)C[C@@H]2OCCN |  | inconclusive: 56.2 µM [inhibitor, partial curve, poor fit] |  |
| CN1C[C@H](O)C[C@H]1c1nnc2n1CCN(C(=O)CC1CCCC1)CC2 | inactive: 2.37% |  |  |
| Cn1ccc2c(C(=O)NCc3cccnc3)nc(-c3ccncc3)cc21 |  | inconclusive: 70.8 µM [inhibitor, partial curve, poor fit] |  |
| Cc1cccc(CN2CCCCCNC(=O)CC2c2ccccc2)c1 (configuration not stated) |  | inconclusive: 44.7 µM [inhibitor, partial curve, poor fit] |  |
| COc1cc2c(cc1OC)C(CNC(=O)c1ccco1)N(C(=O)Nc1cccc(F)c1)CC2 (configuration not stated) |  | active: 44.7 µM |  |
| O=C(NC[C@H]1O[C@H](Cc2cc(-c3ccc(F)cc3)on2)CC[C@@H]1O)c1ccc(F)cc1 |  | inconclusive: 126 µM [inhibitor, single point] |  |
